According to the supplement of paper PMC6135742:
Where “and” joins values, the source holds several entries; their conditions need not be identical. Identical values can stand only once. Counter-ions that a name gives are not always drawn. ± gives the standard deviation of the averaged measurements. Over roughly 2,600 compounds, “total cell number (DAPI+ nuclei) relative to DMSO vehicle control” has its median near -1.4; the lowest 2% begin near -23. Some of the results follow.

Each molecule was assayed on jimpy (Plp1 jimpy) mouse iPSC-derived oligodendrocyte progenitor cells (assay: total cell number (DAPI+ nuclei) relative to DMSO vehicle control (SDs above negative control mean); higher = more surviving cells). Conditions: 10 µM; 3 days.

Row | SMILES | total cell number
1 | CCCN(CCC)S(=O)(=O)c1ccc(C(=O)O)cc1 [Probenecid] | 1.16
2 | Nc1ncnc2c1ncn2[C@@H]1O[C@H](CO)[C@@H](O)[C@H]1O [Adenosine] | -1.28 ± 0.88
3 | O=C(c1ccc(Nc2nccc(-c3cc4ccccc4s3)n2)cc1)N1CCC(N2CCCC2)CC1 [IKK-16 (IKK Inhibitor VII)] | -12.3
4 | Clc1ccc(CSC(Cn2ccnc2)c2ccc(Cl)cc2Cl)cc1 (stereo unspecified) [Sulconazole Nitrate] | -0.639
5 | Cc1cc(C)c(Nc2ccnc(Nc3ccc(C#N)cc3)n2)c(C)c1 [Dapivirine (TMC120)] | -7.9
6 | C[n+]1cc2c3c(ccc2c2ccc4cc5c(cc4c21)OCO5)OCO3 [Sanguinarine chloride] | -10.9
7 | CO[C@H]1C[C@@H]2CC[C@@H](C)[C@@](O)(O2)C(=O)C(=O)N2CCCC[C@H]2C(=O)O[C@H]([C@H](C)C[C@@H]2CC[C@@H](OCCO)[C@H](OC)C2)CC(=O)[C@H](C)/C=C(\C)[C@@H](O)[C@@H](OC)C(=O)[C@H](C)C[C@H](C)/C=C/C=C/C=C/1C [Everolimus (RAD001)] | -2.07
8 | C=CC1=C(C)c2cc3[nH]c(cc4nc(cc5[nH]c(cc1n2)c(C)c5CCC(=O)O)C(CCC(=O)O)=C4C)c(C)c3C=C [Protoporphyrin IX disodium] | -4.32
9 | CC1CNc2c(cccc2S(=O)(=O)N[C@@H](CCCNC(=N)N)C(=O)N2CC[C@@H](C)C[C@@H]2C(=O)O)C1 (stereo partly specified) [Argatroban monohydrate] | -0.843
10 | CC1CNc2c(cccc2S(=O)(=O)N[C@@H](CCCNC(=N)N)C(=O)N2CC[C@@H](C)C[C@@H]2C(=O)O)C1 (stereo partly specified) [Argatroban] | -0.795
11 | CN(C)CCN(Cc1ccccc1)c1ccccn1 [Tripelennamine HCl] | -0.852
12 | COc1ccccc1N1CCN(CCN(C(=O)C2CCCCC2)c2ccccn2)CC1 | -1.8 and -2.44
13 | Nc1ccn([C@@H]2O[C@H](CO)[C@@H](O)C2(F)F)c(=O)n1 [Gemcitabine hydrochloride] | -2.62
14 | Nc1ccn([C@@H]2O[C@H](CO)[C@@H](O)C2(F)F)c(=O)n1 [Gemcitabine] | -3.97
15 | CC(=O)O[C@@]12CO[C@@H]1C[C@H](O)[C@@]1(C)C(=O)[C@H](O)C3=C(C)[C@@H](OC(=O)[C@H](O)[C@@H](NC(=O)OC(C)(C)C)c4ccccc4)C[C@@](O)([C@@H](OC(=O)c4ccccc4)[C@H]21)C3(C)C [Docetaxel] | -10.6
16 | O=C(/C=C/c1ccccc1)NC(NC(=S)Nc1cccc2cccnc12)C(Cl)(Cl)Cl (stereo unspecified) [Salubrinal] | 2.35
